Out of some 310,000 compounds screened, about 18,000 (5.8%) were called active. The inconclusive results got no clear call from the source; some entries with a clear call stand among them for comparison. Calls follow the shape of the dose curve; as a rule, active = well fitted inhibition curve with a large enough effect; inconclusive = small, poorly fitted or top-dose-only effect, or another doubt; inactive = no such curve, though single readings can be large or run the other way. No potency is given beside an inconclusive call; the fits are too rough.
Assay: Primary qHTS for delayed death inhibitors of the malarial parasite plastid, 48 hour incubation
Details: P. falciparum luciferase growth in erythrocytes; series mostly up to 28.7 µM; activity change, negative = inhibition: at the top concentration
In short: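 Parasite viability was followed by luminescence of a genomically integrated firefly luciferase. Cultures held 0.1% parasitemia at 2% hematocrit (final), incubated under 5% CO2 at 37 C.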
% is scaled to controls: 0 for no effect and ±100 for the full control effect; potency is read from the fitted curve at half-maximal effect; tags tell the direction and shape of the fitted curve.

Row | SMILES | Potency | activity change, negative = inhibition
1 | Cc1cc(C(=O)N/N=C2\CC(=O)CC(C)(C)C2)c(C)n1-c1ccc(F)cc1 | inconclusive [inhibitor, partial curve, poor fit] | 
2 | Cc1c(C(=O)N(Cc2ccccc2)C(C)C)oc2ccc(S(=O)(=O)N3CCOCC3)cc12 | inconclusive [inhibitor, single point] | 
3 | COC(=O)c1ccsc1NC(=O)CSc1nnnn1-c1ccccc1SC | inconclusive [inhibitor, partial curve] | 
4 | CCC1CCCCN1Cc1nc(Cc2ccccc2Cl)no1 (configuration not stated) | inconclusive [inhibitor, partial curve, poor fit] | 
5 | O=C(CSc1nc2c(sc3ccccc32)c(=O)n1-c1ccccc1)NCc1ccco1 | inconclusive [inhibitor, partial curve, poor fit] | 
6 | CCOc1ccc(-c2noc(CCCC(=O)NC3CCCC3)n2)cc1OC | inconclusive [inhibitor, partial curve, poor fit] | 
7 | O=C(CSc1ncnc2scc(-c3ccccc3)c12)N1CCN(c2ccccc2F)CC1 |  | inactive: -4.38%
8 | COC(=O)c1ccc(S(=O)(=O)N2CCCN(Cc3cccc(Br)c3F)CC2)n1C |  | inactive: -19%
9 | O=C(Nc1ccc2c(c1)CCC2)C1CCN(c2c3c(nc4ncnn24)CCC3)CC1 | active: 11.7 µM | 
10 | O=C(CSc1nccn1Cc1ccco1)Nc1cccc(F)c1 |  | inactive: 1.33%
11 | COc1ccc2c(c1)OC[C@H]1[C@H]2N2C(=O)CN(Cc3ccc(Cl)cc3)C(=O)[C@@]2(C)[C@H]1c1ccccc1 | active: 2.94 µM | 
12 | COc1cc(C(C(=O)Nc2c(C)cccc2C)N(C)C(=O)c2ccc(-n3cnnn3)cc2)ccc1O (configuration not stated) | inconclusive [inhibitor, partial curve, poor fit] | 
13 | CC(C)CC(=O)Nc1cccc(-c2nc3ncccc3o2)c1 |  | inactive: -14.6%
14 | Cc1cc(C)c(C)c(S(=O)(=O)NNC(=O)c2cccc(S(=O)(=O)N3CCOCC3)c2)c1C | inconclusive [inhibitor, full curve] | 
15 | CCOc1ccc(NC(=O)CN(c2ccc(C)cc2)S(=O)(=O)c2c(C)nn(C)c2C)cc1 | inconclusive [inhibitor, single point] | 
16 | Cc1cc(Cn2nc(C(=O)NCc3cccc(Br)c3)cc2-c2ccccc2)on1 | inconclusive [inhibitor, partial curve, poor fit] | 
17 | CNc1ccccc1C(C)(C)c1cc(-c2ccc(F)cc2)no1 | inconclusive [inhibitor, partial curve] | 
18 | O=C(CCCC(=O)c1ccccc1)Nc1ccc(O)cc1 |  | inactive: -14.8%
19 | COc1ccc(-c2cc3ccccc3[nH]2)cc1 |  | inactive: 132%
20 | Cc1ccc(SCC(=O)c2cc(C)c(O)c(C)c2)cc1 | inconclusive [inhibitor, partial curve, poor fit] | 
21 | C=CCN(CC=C)Cc1c[nH]c2ccccc12 | inconclusive [inhibitor, partial curve, poor fit] | 

Row | SMILES | Potency | activity change, negative = inhibition
22 | CCOC(=O)N1CCN(C(=S)NC(=O)c2c(-c3c(Cl)cccc3Cl)noc2C)CC1 | inconclusive [inhibitor, single point] | 
23 | CCOC(=O)c1nnn(-c2ccc([N+](=O)[O-])cc2[N+](=O)[O-])c1C | active: 11.7 µM | 
24 | C=CCn1c(=O)c2ccccc2n2c(SCC(=O)NC(C)C)nnc12 |  | inactive: -10.4%
25 | Cc1ccccc1C(=O)N1CCN(c2nc(N3CCOCC3)nc(N3CCOCC3)n2)CC1 | inconclusive [inhibitor, partial curve] | 
26 | CCOC(=O)c1ccc(NC(=O)C(C)NS(=O)(=O)c2ccc(OC)cc2)cc1 (configuration not stated) | inconclusive [inhibitor, partial curve] | 
27 | O=C1CCCN1CC(O)CS(=O)(=O)Cc1ccc(Cl)cc1Cl (configuration not stated) | inconclusive [inhibitor, partial curve, poor fit] | 
28 | Cc1ccc(C)c(C(=O)COC(=O)c2cc([N+](=O)[O-])ccc2N2CCOCC2)c1 | inconclusive [inhibitor, single point] | 
29 | O=C(CC(CC(=O)c1ccccc1)c1ccccc1)c1ccccc1 |  | inactive: -7.71%
30 | Cc1ccc(S(=O)(=O)Nc2ccccc2F)cc1C(=O)NNC(=O)c1csc(N2CCOCC2)n1 | inconclusive [inhibitor, partial curve, poor fit] | 
31 | Cc1ccc(NC(=O)CSc2nn(-c3ccc(Cl)cc3)c(=S)s2)cc1S(=O)(=O)N(C)C | inconclusive [inhibitor, partial curve, poor fit] | 
32 | CC1(C)OCC(C2CC(c3ccccc3)NS(=O)(=O)O2)O1 (configuration not stated) |  | inactive: 29.8%
33 | CC(NC(=O)COc1ccccc1-c1ccccc1)c1ccccc1 (configuration not stated) | inconclusive [inhibitor, single point] | 
34 | COCc1cc(N2CCCC2)nc(-c2ccccc2)n1 |  | inactive: -10.8%
35 | COc1ccc(S(=O)(=O)N2CCOC2CNC(=O)C(=O)NCCc2ccccc2OC)cc1C (configuration not stated) | inconclusive [inhibitor, partial curve, poor fit] | 
36 | CCN(Cc1nc2ccccc2c(=O)[nH]1)C(=O)c1cccc(S(=O)(=O)N2CCc3ccccc32)c1 | active: 10.4 µM | 
37 | COc1ccc(S(=O)(=O)N2CCCCC2)cc1NC(=O)Cc1ccsc1 | inconclusive [inhibitor, single point] | 
38 | Cc1cc(C)c(N2CCN(S(=O)(=O)N3CCCCCC3)CC2)c(C)c1 | active: 10.4 µM | 
39 | COc1ccc(CN(C(=O)CN2C(=O)C(C)Oc3ccccc32)C2CCCC2)c(OC)c1 (configuration not stated) | active: 4.65 µM | 
40 | Cc1ccc(S(=O)(=O)Nc2ccc(-c3cn4ccc(C)cc4n3)cc2)cc1 | active: 1.65 µM | 
41 | O=C(CCCOc1ccc(Br)cc1)Nc1nnc(C2CC2)s1 | inconclusive [inhibitor, single point] | 
42 | COc1cc(NC(=O)c2csc(-c3ccncc3)n2)cc(C(=O)Nc2cccc(C(F)(F)F)c2)c1 | inconclusive [inhibitor, partial curve, poor fit] | 

From PubChem BioAssay AID504832 (National Center for Advancing Translational Sciences (NCATS), 2011)
